Data on eleven compounds can be found in PubChem BioAssay AID330 (DTP/NCI, 2004).

Inconclusive results and toxic doses are left out. Not every entry of the source has a single result; some have several. They are shown here; other results are not. An entry can have further records. Values that stand side by side repeat one measurement (runs, samples, wells, individuals or studies).

The assay deals with P388 leukemia ip, CD2F1 mice, survival T/C. As to the kind of experiment: NCI In Vivo Anticancer Drug Screen. Data for tumor model P388 Leukemia (intraperitoneal) in CD2F1 (CDF1) mice. To be noted: endpoint: median survival time, higher = longer survival.

For the compound `C/C=C/C=C/c1cc2cc3c(c(O)c2c(=O)[nH]1)C1(CC3)C(O)=c2c(=O)c3c(=O)cc(OC)c(=O)c=3c(=O)c2=C1O` (stereo unspecified), the T/C (dose: 0.12 mg/kg/injection, schedule: Q01DX009 (ip), vehicle: DMSO) is 98 % of control and 181 % of control.

On to `CCOc1ccc(C(C)c2cc3c(cc2OCC)OCO3)cc1` (stereo unspecified), for which, for the setting “dose: 50.0 mg/kg/injection, schedule: Q01DX005 (ip), vehicle: saline with Tween-80”, the T/C was 107 % of control and 171 % of control.

With `N=C(N)c1ccc(OCCCOc2ccc(C(=N)N)cc2Br)c(Br)c1`, where the note is “dose: 12.5 mg/kg/injection, schedule: Q01DX009 (ip), vehicle: saline”, the T/C is 118 % of control and 155 % of control.

Consider `COc1cc([C@@H]2c3cc4c(cc3[C@@H](OC3OC5COC(C)OC5C(O)C3O)[C@H]3COC(=O)[C@H]23)OCO4)cc(OC)c1O` (stereo partly specified), for which, where the note is “dose: 18.0 mg/kg/injection, schedule: Q04DX003 (ip), vehicle: water”, the T/C is 113 % of control and 355 % of control.

For the compound `CSC(=S)S(=O)(=O)C12CC3CC(CC(C3)C1)C2`, the T/C (dose: 12.5 mg/kg/injection, schedule: Q01DX009 (ip), vehicle: Klucel (hydroxypropylcellulose) (HPC)) is on record as 107 % of control, 111 % of control, 153 % of control.

On to `N#Cc1c(-c2ccc(F)cc2)c(-c2ccc(F)cc2)nn(CCO)c1=O`, for which, under “dose: 50.0 mg/kg/injection, schedule: Q04DX002 (ip), vehicle: distilled water + Tween-80”, the T/C is 111 % of control and 150 % of control.

On to `COc1ccc2cc3[n+](cc2c1O)CCc1cc2c(cc1-3)OCO2`, for which the T/C (dose: 100.0 mg/kg/injection, schedule: Q01DX005 (ip), vehicle: Klucel (hydroxypropylcellulose) (HPC)) is recorded as 108 % of control, 152 % of control, 157 % of control.

With `CN(C)c1ccc2c(NCCCCCCNc3ccnc4cc(N(C)C)ccc34)ccnc2c1`, the T/C (dose: 25.0 mg/kg/injection, schedule: Q01DX009 (ip), vehicle: distilled water + alcohol) is listed as 99 % of control, 177 % of control, 185 % of control.

Regarding `Nc1ncnc2c1ncn2[C@@H](C=O)O[C@@H](C=O)CO`, where the note is “dose: 12.5 mg/kg/injection, schedule: Q01DX009 (ip), vehicle: other”, the T/C was 86 % of control and 169 % of control.

For the compound `Nc1nc(N)c2nc(CNc3ccc(C(=O)NC(CC(=O)O)C(=O)O)cc3)cnc2n1` (stereo unspecified), the T/C (dose: 100.0 mg/kg/injection, schedule: Q04DX003 (ip), vehicle: saline with Tween-80) was 116 % of control and 159 % of control.

As for `CCCN1COC(OCC)C(C)(C)C1` (stereo unspecified), where the note is “dose: 50.0 mg/kg/injection, schedule: Q01DX009 (ip), vehicle: saline with Tween-80”, the T/C was 112 % of control and 154 % of control.
